Article PMC4336329 (PLoS ONE, 2015)
The whole screen tested about 310,000 compounds, of which about 2,200 (0.71%) showed an effect of 50% or more. Effects have a minus sign here. The list shows a part of the results.

What follows are compounds tested against human ether-à-go-go-related gene (hERG) potassium channel (human, UniProt Q12809) (assay: primary screen, population patch clamp on CHO cells stably expressing hERG).
Sequence of human ether-à-go-go-related gene (hERG) potassium channel (Q12809 whole entry, looked up): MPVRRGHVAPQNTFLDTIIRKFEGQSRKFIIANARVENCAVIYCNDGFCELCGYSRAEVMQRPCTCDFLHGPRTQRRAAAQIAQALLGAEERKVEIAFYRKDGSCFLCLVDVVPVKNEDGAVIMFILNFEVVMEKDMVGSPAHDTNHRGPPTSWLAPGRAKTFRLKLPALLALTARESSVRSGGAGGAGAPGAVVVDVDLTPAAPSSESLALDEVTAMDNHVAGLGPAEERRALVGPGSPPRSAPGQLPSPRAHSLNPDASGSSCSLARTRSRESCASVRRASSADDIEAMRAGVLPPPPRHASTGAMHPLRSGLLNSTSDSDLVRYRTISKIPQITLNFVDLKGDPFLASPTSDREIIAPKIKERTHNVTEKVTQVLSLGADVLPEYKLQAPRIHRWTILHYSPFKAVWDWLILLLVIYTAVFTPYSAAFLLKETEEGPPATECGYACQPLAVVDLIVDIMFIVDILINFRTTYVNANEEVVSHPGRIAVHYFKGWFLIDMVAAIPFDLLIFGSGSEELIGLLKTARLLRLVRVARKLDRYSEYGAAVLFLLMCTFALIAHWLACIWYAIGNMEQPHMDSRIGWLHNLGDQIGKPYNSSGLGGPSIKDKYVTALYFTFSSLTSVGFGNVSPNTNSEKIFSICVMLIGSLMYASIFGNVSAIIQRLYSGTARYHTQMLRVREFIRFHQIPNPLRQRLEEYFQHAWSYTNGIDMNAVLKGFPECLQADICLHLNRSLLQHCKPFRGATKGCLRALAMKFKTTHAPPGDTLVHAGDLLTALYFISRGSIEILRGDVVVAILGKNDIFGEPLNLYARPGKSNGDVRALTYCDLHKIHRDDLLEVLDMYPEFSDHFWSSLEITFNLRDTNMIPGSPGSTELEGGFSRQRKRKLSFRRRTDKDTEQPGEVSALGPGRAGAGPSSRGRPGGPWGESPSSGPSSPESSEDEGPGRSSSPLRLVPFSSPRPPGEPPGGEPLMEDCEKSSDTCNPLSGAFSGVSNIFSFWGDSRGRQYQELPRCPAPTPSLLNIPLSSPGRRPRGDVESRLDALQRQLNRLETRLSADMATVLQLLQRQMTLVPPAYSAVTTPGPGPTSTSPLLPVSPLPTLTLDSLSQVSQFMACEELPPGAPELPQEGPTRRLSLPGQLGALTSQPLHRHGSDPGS

Q: For `Fc1ccccc1/C=N/Nc1nc(-c2ccccn2)nc2ccccc12`, which “hERG current change (%, negative = inhibition) at 1uM” value is on record?
A: 15.4%

Q: Which “hERG current change (%, negative = inhibition) at 1uM” value does the source give for `COc1ccc(-c2cc(C)no2)cc1S(=O)(=O)NCCc1ccco1` here?
A: 0.782%

Q: Which “hERG current change (%, negative = inhibition) at 1uM” value does the source give for `COc1cccc(C2c3[nH]c4ccccc4c3C[C@H]3C(=O)N(c4ccccc4C(=O)N4CCC(C(=O)O)CC4)C(=O)N23)c1` (stereo partly shown) here?
A: 3.33%

Q: How did the “hERG current change (%, negative = inhibition) at 1uM” value turn out when `O=[N+]([O-])c1ccccc1CSc1nnc2ccccn12` was run?
A: 7.6%

Q: How did the “hERG current change (%, negative = inhibition) at 1uM” value turn out when `CS(=O)(=O)N(CC(=O)N1CCN(c2ccccc2)CC1)c1cc(C(F)(F)F)ccc1Cl` was run?
A: -8.42%

Q: With `CC(C)C[C@H](NC(=O)N1CC(=O)Nc2ccccc21)C(=O)N[C@@H](Cc1ccccc1)C(=O)O` as the compound, how does the “hERG current change (%, negative = inhibition) at 1uM” value read?
A: 11.6%

Q: Which “hERG current change (%, negative = inhibition) at 1uM” value does the source give for `COc1cc(Br)cc(/C=C/c2ccc3cccc(O)c3n2)c1O` here?
A: 16.8%

Q: Which “hERG current change (%, negative = inhibition) at 1uM” value does the source give for `COc1ccc(S(=O)(=O)Nc2cc(OC)c(NC(=O)c3ccco3)cc2OC)cc1` here?
A: 6.01%

Q: `Cn1c(NCCCO)nc2c1c(=O)n(Cc1ccccc1F)c(=O)n2C` was tested. Which “hERG current change (%, negative = inhibition) at 1uM” value did it give?
A: 4.91%

Q: `Cc1n[nH]c(C)c1CCNC(=O)C1CCC(=O)N(CCc2cccc(F)c2)C1` (stereo not shown) was tested. Which “hERG current change (%, negative = inhibition) at 1uM” value did it give?
A: 9.88%

Q: How did the “hERG current change (%, negative = inhibition) at 1uM” value turn out when `COc1ccc(Cn2c(O)c(C=NCCCn3ccnc3)c(=O)[nH]c2=O)cc1` was run?
A: 2%

Q: `O=c1c2ccccc2nc(C[n+]2ccccc2)n1-c1cccc(C(F)(F)F)c1.[Br-]` was tested. Which “hERG current change (%, negative = inhibition) at 1uM” value did it give?
A: 5.64%

Q: With `O=S(=O)(c1ccc(Cl)cc1)N1CCN(C(=S)NCC2CCCO2)CC1` (stereo not shown) as the compound, how does the “hERG current change (%, negative = inhibition) at 1uM” value read?
A: 8.76%

Q: With `COc1cccc(CCc2nnc(CCC(=O)N3CCCC3c3nccs3)o2)c1` (stereo not shown) as the compound, how does the “hERG current change (%, negative = inhibition) at 1uM” value read?
A: 15.1%

Q: For `CN(C)CCN(C(=O)CCS(=O)(=O)c1ccccc1)c1nc2c(F)cccc2s1`, which “hERG current change (%, negative = inhibition) at 1uM” value is on record?
A: 17.7%

Q: With `O=C(NCCc1cccs1)C1CC(c2ccccc2[N+](=O)[O-])=NO1` (stereo not shown) as the compound, how does the “hERG current change (%, negative = inhibition) at 1uM” value read?
A: 6.79%

Q: Which “hERG current change (%, negative = inhibition) at 1uM” value does the source give for `COc1cc(C(=O)NNC(=O)c2ccc(S(=O)(=O)N3CCCCC3)cc2)cc(OC)c1OC` here?
A: -15.7%

Q: How did the “hERG current change (%, negative = inhibition) at 1uM” value turn out when `COc1ccc(-c2ccc(CCC(=O)O)n2NC(=O)c2ccc(O)cc2)cc1` was run?
A: 10.9%

Q: How did the “hERG current change (%, negative = inhibition) at 1uM” value turn out when `CNC(=O)c1ccc(NC(=O)Nc2ccccc2)cc1` was run?
A: 9.05%

Q: How did the “hERG current change (%, negative = inhibition) at 1uM” value turn out when `COc1ccccc1NC(=O)CSc1nnc(-c2ccccn2)n1Cc1ccco1` was run?
A: 11.3%

Q: Which “hERG current change (%, negative = inhibition) at 1uM” value does the source give for `Cc1ccc(C(=O)CCC(=O)Nc2cccc(C)c2)cc1` here?
A: 15.9%

Q: With `O=C(CSc1ncnc2c1nnn2Cc1ccc(F)cc1)NC1CCCCC1` as the compound, how does the “hERG current change (%, negative = inhibition) at 1uM” value read?
A: 8.72%

Q: `Cc1cc(C(=O)N=Nc2c(O)n(C(C)C)c3ccccc23)n[nH]1` was tested. Which “hERG current change (%, negative = inhibition) at 1uM” value did it give?
A: 0.743%

Q: `COc1ccccc1OCC(=O)N1CCC2(CC1)CC(=O)c1ccccc1O2` was tested. Which “hERG current change (%, negative = inhibition) at 1uM” value did it give?
A: -4.96%

Q: With `CC(=O)c1nn(-c2ccccc2)cc1C(=O)c1ccc(Br)cc1` as the compound, how does the “hERG current change (%, negative = inhibition) at 1uM” value read?
A: 20.8%

Q: How did the “hERG current change (%, negative = inhibition) at 1uM” value turn out when `COC(=O)CSc1nnc(-c2ccco2)o1` was run?
A: 14.4%

Q: For `CCCCC(CC)CNC(=O)/C=C/c1ccc(F)cc1` (stereo not shown), which “hERG current change (%, negative = inhibition) at 1uM” value is on record?
A: 9.7%

Q: With `CCOc1ccc(-c2csc(NC(=O)CSCC(=O)O)n2)c2ccccc12` as the compound, how does the “hERG current change (%, negative = inhibition) at 1uM” value read?
A: 12.4%

Q: With `CCOc1cc(CNc2ncn[nH]2)ccc1OCC(=O)NC(C)(C)C` as the compound, how does the “hERG current change (%, negative = inhibition) at 1uM” value read?
A: 10.6%

Q: Which “hERG current change (%, negative = inhibition) at 1uM” value does the source give for `COc1cc2c(cc1OC)C(CC(=O)O)N(C(=O)CC1CCCC1)CC2` (stereo not shown) here?
A: 10.9%

Q: For `O=C1NCC(c2ccccc2)C1C(=O)N/N=C\c1ccc(-c2ccc(Cl)c(Cl)c2)o1` (stereo not shown), which “hERG current change (%, negative = inhibition) at 1uM” value is on record?
A: 19.5%

Q: For `CCCCN(CCCC)CCNC(=O)c1cn(C)c2ccc(S(=O)(=O)N(C)C3CCCCC3)cc2c1=O`, which “hERG current change (%, negative = inhibition) at 1uM” value is on record?
A: -32.3%

Q: With `COc1ccc(CCNC(=O)CN2C(=O)COc3ccc(S(=O)(=O)N4CCOCC4)cc32)cc1OC` as the compound, how does the “hERG current change (%, negative = inhibition) at 1uM” value read?
A: 6.98%

Q: How did the “hERG current change (%, negative = inhibition) at 1uM” value turn out when `Cc1ccccc1CN1CCN(Cc2ccccc2)CC1.O=C(O)C(=O)O` was run?
A: 6.37%

Q: For `CCCn1c(SCC(=O)NC)nc2sc3c(c2c1=O)CCC3`, which “hERG current change (%, negative = inhibition) at 1uM” value is on record?
A: 13.9%

Q: `COC(=O)C1CCCCN1C(=O)c1ccc2oc(Cc3ccccc3)nc2c1` (stereo not shown) was tested. Which “hERG current change (%, negative = inhibition) at 1uM” value did it give?
A: 7.55%

Q: For `COCC(=O)OCC(=O)Nc1ccccc1-c1ccccc1`, which “hERG current change (%, negative = inhibition) at 1uM” value is on record?
A: 15.2%

Q: Which “hERG current change (%, negative = inhibition) at 1uM” value does the source give for `O=C(Nc1ccccc1)N1CCN(Cc2ccc3c(c2)OCO3)CC1` here?
A: -0.794%

Q: How did the “hERG current change (%, negative = inhibition) at 1uM” value turn out when `CC(C)Cn1c(N)c(C(=O)COC(=O)C2CC(=O)N(c3ccc4c(c3)OCCO4)C2)c(=O)n(C)c1=O` (stereo not shown) was run?
A: -18.4%

Q: How did the “hERG current change (%, negative = inhibition) at 1uM” value turn out when `COc1ccc(NC(=O)CSc2nnc(-c3cccnc3)s2)cc1` was run?
A: 7.86%

Q: How did the “hERG current change (%, negative = inhibition) at 1uM” value turn out when `Cn1nnnc1SCC(=O)NCc1cccc(C(=O)O)c1` was run?
A: -8.8%

Q: With `CCCCCc1ccc(-c2cn(CCc3c[nH]c4ccccc34)nn2)cc1` as the compound, how does the “hERG current change (%, negative = inhibition) at 1uM” value read?
A: 1.43%

Q: For `COc1ccc(NC(=O)c2cc(Br)c(Br)s2)cn1`, which “hERG current change (%, negative = inhibition) at 1uM” value is on record?
A: -0.0288%

Q: With `Cc1cccc(N(NC(=O)C(C)(C)O)C(=O)c2ccccc2)c1` as the compound, how does the “hERG current change (%, negative = inhibition) at 1uM” value read?
A: 12.4%

Q: With `C=C(C)CN(CC)C(=O)CCc1nnc(CCc2c[nH]c3ccccc23)o1` as the compound, how does the “hERG current change (%, negative = inhibition) at 1uM” value read?
A: 8.05%

Q: `CCOC(=O)C1(O)CC(C)=NN1C(=O)c1cccc(Cl)c1` (stereo not shown) was tested. Which “hERG current change (%, negative = inhibition) at 1uM” value did it give?
A: 14.6%

Q: For `Cc1cc(NC(=O)CSCC(=O)Nc2cc(C(F)(F)F)ccc2N2CCOCC2)no1`, which “hERG current change (%, negative = inhibition) at 1uM” value is on record?
A: 12.4%

Q: `CC(C)C(NC(=O)Cc1ccccc1[N+](=O)[O-])C(C)C` was tested. Which “hERG current change (%, negative = inhibition) at 1uM” value did it give?
A: 6.36%

Q: How did the “hERG current change (%, negative = inhibition) at 1uM” value turn out when `Cc1cc(C)c(C)c(S(=O)(=O)Nc2ccc(C(N)=O)cc2)c1C` was run?
A: 13.9%

Q: With `CC(C)C(NC(=O)C1CCC(C(C)(C)C)CC1)C(=O)NCc1cccnc1` (stereo not shown) as the compound, how does the “hERG current change (%, negative = inhibition) at 1uM” value read?
A: 9.78%

Q: For `Cc1cc(C)nc(Oc2ccc(Br)cc2)n1`, which “hERG current change (%, negative = inhibition) at 1uM” value is on record?
A: 17.7%

Q: `CC(C)(C)c1ccc(NC(=O)CNC2CCCc3ccccc32)cc1.Cl` (stereo not shown) was tested. Which “hERG current change (%, negative = inhibition) at 1uM” value did it give?
A: 11.1%

Q: With `Cc1nnc(Sc2cc(C(=O)NCc3ccco3)c3ccccc3n2)s1` as the compound, how does the “hERG current change (%, negative = inhibition) at 1uM” value read?
A: 2%

Q: `O=C(O)CC(CC(=O)Nc1ccc(N2CCOCC2)cc1)c1ccccc1` (stereo not shown) was tested. Which “hERG current change (%, negative = inhibition) at 1uM” value did it give?
A: 15.2%

Q: With `Cc1ccc(N=Nc2ccc(C)cc2NC(=O)Nc2ccccc2F)cc1` as the compound, how does the “hERG current change (%, negative = inhibition) at 1uM” value read?
A: 9.9%
